Results on 153 variants are retold here after a collection of fitness landscapes (doi:10.1126/science.1257360).

The list shows a part of the results.

B1: PhoQ; a variant is named by its letters at X, in order, P23837 (parent)
chain: MKKLLRLFFPLSLRVRFLLATAAVVLVLSLAYGMVALIGYSVSFDKTTFRLLRGESNLFYTLAKWENNKLHVELPENIDKQSPTMTLIYDENGQLLWAQRDVPWLMKMIQPDWLKSNGFHEIEADVNDTSLLLSGDHSIQQQLQEVREDDDDAEMTHSVAVNVYPATSRMPKLTIVVVDTIPVELKSSYMVWSWFIYVLSANLLLVIPLLWVAAWWSLRPIEALAKEVRELEEHNRELLNPATTRELTSLVRNLNRLLKSERERYDKYRTTLTDLTHSLKTPLXXLQXXLRSLRSEKMSVSDAEPVMLEQISRISQQIGYYLHRASMRGGTLLSRELHPVAPLLDNLTSALNKVYQRKGVNISLDISPEISFVGEQNDFVEVMGNVLDNACKYCLEFVEISARQTDEHLYIVVEDDGPGIPLSKREVIFDRGQRVDTLRPGQGVGLAVAREITEQYEGKIVAGESMLGGARMEVIFGRQHSAPKDE

In this experiment the parent is B1. The experiment is described as follows: enrichment ratio after two sorts for PhoP signalling (ratio (wild type AVST 3.29)); higher = more functional. Conditions: with PhoP (E. coli).
Turning to WWSA, the enrichment ratio was at most 0.25.

Take RQPE: the enrichment ratio is at most 0.25.

With GDTD, the enrichment ratio was at most 0.25.

Turning to IMIC, the enrichment ratio is at most 0.25.

Regarding FQCN, the enrichment ratio was at most 0.25.

Consider LMFA, for which the enrichment ratio was at most 0.25.

With NLVD, the enrichment ratio was at most 0.25.

Regarding IAKD, the enrichment ratio is at most 0.25.

Take ADFL: the enrichment ratio is at most 0.25.

As for HCEP, the enrichment ratio was at most 0.25.

Consider DHDI, for which the enrichment ratio is at most 0.25.

With PPQE, the enrichment ratio is at most 0.25.

Regarding INNG, the enrichment ratio was at most 0.25.

KYLM: the enrichment ratio is at most 0.25.

As to PMRY, the enrichment ratio is at most 0.25.

In the case of GMNS, the enrichment ratio was at most 0.25.

Take HGVK: the enrichment ratio was at most 0.25.

For APWK, the enrichment ratio is at most 0.25.

With GDAS, the enrichment ratio is at most 0.25.

As for WRIF, the enrichment ratio was at most 0.25.

QRTQ: the enrichment ratio is at most 0.25.

For RDNN, the enrichment ratio was at most 0.25.

Take AVFM: the enrichment ratio was at most 0.25.

YKSL: the enrichment ratio is at most 0.25.

As for LLLK, the enrichment ratio was at most 0.25.

With MLMR, the enrichment ratio was at most 0.25.

On to LSAR, for which the enrichment ratio is at most 0.25.

In the case of LFQC, the enrichment ratio was at most 0.25.

In the case of MIYA, the enrichment ratio is at most 0.25.

Take EIPS: the enrichment ratio is at most 0.25.

WICM: the enrichment ratio is at most 0.25.

As to EHIN, the enrichment ratio is at most 0.25.

As to FGIS, the enrichment ratio is at most 0.25.

With MART, the enrichment ratio was at most 0.25.

For the variant DFTM, the enrichment ratio amounted to 3.33.

On to IKCN, for which the enrichment ratio is at most 0.25.

For the variant YNQK, the enrichment ratio is at most 0.25.

Take QEFK: the enrichment ratio was at most 0.25.

With DSLR, the enrichment ratio is at most 0.25.

In the case of QRHD, the enrichment ratio was at most 0.25.

Consider KRIE, for which the enrichment ratio was at most 0.25.

Turning to VHVI, the enrichment ratio is at most 0.25.

Turning to DMPE, the enrichment ratio is at most 0.25.

For EDAN, the enrichment ratio is at most 0.25.

Take KDDA: the enrichment ratio was at most 0.25.

For the variant LYAP, the enrichment ratio was at most 0.25.

For NFPE, the enrichment ratio is at most 0.25.

Consider DWCT, for which the enrichment ratio was at most 0.25.

For MVWN, the enrichment ratio is 13.3.

On to AMAE, for which the enrichment ratio amounted to 0.326.

Consider NPHA, for which the enrichment ratio was at most 0.25.

Turning to LRLG, the enrichment ratio is at most 0.25.

For the variant KFGH, the enrichment ratio was at most 0.25.

Take WDYI: the enrichment ratio is at most 0.25.

For ERSA, the enrichment ratio is at most 0.25.

RLIA: the enrichment ratio is at most 0.25.

With DKLM, the enrichment ratio was at most 0.25.

IAKR: the enrichment ratio was at most 0.25.

In the case of IPCI, the enrichment ratio is at most 0.25.

TRND: the enrichment ratio is at most 0.25.

With PGNQ, the enrichment ratio is at most 0.25.

Consider PKYR, for which the enrichment ratio was at most 0.25.

On to KRIK, for which the enrichment ratio is at most 0.25.

Consider YALP, for which the enrichment ratio was at most 0.25.

On to GLMR, for which the enrichment ratio was at most 0.25.

Turning to GPLH, the enrichment ratio was at most 0.25.

As to AAFN, the enrichment ratio was at most 0.25.

Turning to YPNE, the enrichment ratio is at most 0.25.

Regarding VKMW, the enrichment ratio is at most 0.25.

Regarding WHNR, the enrichment ratio was at most 0.25.

For the variant SFYG, the enrichment ratio is at most 0.25.

For QHMG, the enrichment ratio is at most 0.25.

In the case of HMRA, the enrichment ratio was at most 0.25.

In the case of DCNL, the enrichment ratio was at most 0.25.

As for MRLD, the enrichment ratio is at most 0.25.

As to HGLC, the enrichment ratio is 2.19.

On to FCSQ, for which the enrichment ratio was at most 0.25.

With QTLQ, the enrichment ratio is at most 0.25.

Regarding YLKD, the enrichment ratio was at most 0.25.

In the case of QRRC, the enrichment ratio was at most 0.25.

Take IMAY: the enrichment ratio was at most 0.25.

On to RFFE, for which the enrichment ratio is at most 0.25.

In the case of LEFR, the enrichment ratio was at most 0.25.

On to LFWV, for which the enrichment ratio is at most 0.25.

For the variant TKGY, the enrichment ratio amounted to 6.36.

Consider EDYT, for which the enrichment ratio is at most 0.25.

As for LMTP, the enrichment ratio is at most 0.25.

With TEHI, the enrichment ratio worked out at 14.2.

As for GMHT, the enrichment ratio was at most 0.25.

Regarding RWAH, the enrichment ratio is at most 0.25.

As for TPDD, the enrichment ratio was at most 0.25.

On to FHFK, for which the enrichment ratio is at most 0.25.

On to VTSS, for which the enrichment ratio was at most 0.25.

TNWW: the enrichment ratio was at most 0.25.

With MCWE, the enrichment ratio is at most 0.25.

In the case of QEDQ, the enrichment ratio is at most 0.25.

Consider SHVP, for which the enrichment ratio was at most 0.25.

With QDLP, the enrichment ratio is at most 0.25.

Regarding LIQN, the enrichment ratio was at most 0.25.

Regarding MNWL, the enrichment ratio turned out to be 10.

With PWGC, the enrichment ratio was at most 0.25.

For RGPF, the enrichment ratio was at most 0.25.

Turning to EALL, the enrichment ratio came out at 5.01.

HICW: the enrichment ratio is at most 0.25.

Consider DYHD, for which the enrichment ratio is at most 0.25.

For PIIS, the enrichment ratio is at most 0.25.

KNHH: the enrichment ratio is at most 0.25.

As to SNIM, the enrichment ratio is at most 0.25.

For RSGM, the enrichment ratio is at most 0.25.

Turning to LMWE, the enrichment ratio is at most 0.25.

Consider GENN, for which the enrichment ratio was at most 0.25.

MASG: the enrichment ratio came to 1.26.

Consider NCPE, for which the enrichment ratio was at most 0.25.

As for LCNQ, the enrichment ratio was at most 0.25.

Turning to AHNW, the enrichment ratio was at most 0.25.

MIMP: the enrichment ratio is at most 0.25.

In the case of VCYS, the enrichment ratio was 0.518.

On to ARNC, for which the enrichment ratio is at most 0.25.

As to NGMF, the enrichment ratio is at most 0.25.

Consider INQR, for which the enrichment ratio was at most 0.25.

For the variant HADK, the enrichment ratio was at most 0.25.

As for RWLV, the enrichment ratio was at most 0.25.

With TIYY, the enrichment ratio is at most 0.25.

MCTK: the enrichment ratio was at most 0.25.

Turning to MRNN, the enrichment ratio was at most 0.25.

For the variant SEAW, the enrichment ratio stood at 0.438.

With NAMN, the enrichment ratio was at most 0.25.

With TALA, the enrichment ratio amounted to 13.8.

Turning to DPAN, the enrichment ratio was at most 0.25.

Consider RHPW, for which the enrichment ratio was at most 0.25.

With VKGC, the enrichment ratio is at most 0.25.

For PEHH, the enrichment ratio is at most 0.25.

As to DKWL, the enrichment ratio is at most 0.25.

For the variant GGAA, the enrichment ratio was at most 0.25.

Regarding KQWN, the enrichment ratio is at most 0.25.

In the case of GLHA, the enrichment ratio is at most 0.25.

On to MCIH, for which the enrichment ratio was at most 0.25.

Take QALV: the enrichment ratio was determined as 7.32.

PDAV: the enrichment ratio is at most 0.25.

DSMY: the enrichment ratio is at most 0.25.

On to ARVG, for which the enrichment ratio was at most 0.25.

On to NDFW, for which the enrichment ratio is at most 0.25.

Take RKNM: the enrichment ratio is at most 0.25.

As to GHFN, the enrichment ratio is at most 0.25.

Turning to RFRC, the enrichment ratio was at most 0.25.

For the variant RGPI, the enrichment ratio is at most 0.25.

For KNNV, the enrichment ratio is at most 0.25.

For the variant DYKF, the enrichment ratio was at most 0.25.

Take EMTQ: the enrichment ratio was at most 0.25.

With ISPH, the enrichment ratio was at most 0.25.

For KRMD, the enrichment ratio is at most 0.25.

TTSI: the enrichment ratio was determined as 17.1.

For IMTV, the enrichment ratio is at most 0.25.
